From the supplement of paper PMC12217912 come the findings set out here.

This is one part of the list. Sequences were assembled here from the parent chain. Values near 0.05 are background.

B1: TEV protease; numbered along this chain (parent)
chain: MGESLFKGPRDYNPISSSICHLTNESDGHTTSLYGIGFGPFIITNKHLFRRNNGTLVVQSLHGVFKVKDTTTLQQHLVDGRDMIIIRMPKDFPPFPQKLKFREPQREERICLVTTNFQTKSMSSMVSDTSCTFPSGDGIFWKHWIQTKDGQCGSPLVSTRDGFIVGIHSASNFTNTNNYFTSVPKNFMELLTNQEAQQWVSGWRLNADSVLWGGHKVFMVKPEEPFQPVKEATQL

The variants in this test derive from B1. The test can be described thus: raw area under fraction-flipped curve 0-4 h after induction (AUC4h, not background-subtracted), DNA-recorder readout of cleavage of the substrate (dimensionless); higher = more cleavage of the substrate by the protease variant. The conditions noted are these: temperature: 34 °C; time window: 0-4 h after rhamnose induction. As for the experimental part:
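In vivo DNA recorder in E. coli TOP10(DE3) ΔrhaA at 34 °C. Each TEVp single-site mutant (parent TEVp 0) is paired with a single-site variant of the 7-mer TEVs (canonical ENLYFQ|S). The substrate sits between flexible linkers in a Bxb1-sfGFP-TEVs-SsrA fusion, so cleavage stabilises Bxb1 and speeds flipping of a recombination array, read by NGS. The value is the raw area under the fraction-flipped curve over 0-4 h after rhamnose induction (AUC4h), with ≥20 reads per time point. It is not background-subtracted; inactive controls average about 0.047.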
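Further: Bxb1 expression induced with 0.2% (w/v) L-rhamnose at OD600 near 0.5, cultures sampled hourly, flipped fraction per protease–substrate barcode pair counted by paired-end Illumina sequencing.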

On to MGESLFKGPRDYNPISSSICHLTNESDGHTTSLYGIGFGPFIITNKHLFRRNNGTLVVQSLHGVFKVKDTTTLQQHLVDGRDMIIIRMPKDFPPFPQKLKFREPQREERICLVTTNFQTKSMSSMVSDTSCTFPSGDGIFWKHWIQTKDGQCGSPLVSTRDGFIVGIHSASNFTETNNYFTSVPKNFMELLTNQEAQQWVSGWRLNADSVLWGGHKVFMVKPEEPFQPVKEATQL [N175E], for which the “area with substrate ENLAFQS” value worked out at 0.0657, the “area with substrate ENLDFQS” value was 0.0738, the “area with substrate ENLEFQS” value was determined as 0.0636 and the “area with substrate ENLFFQS” value came to 0.0852. The “area with substrate ENLHFQS” value came out at 0.0455, the “area with substrate ENLIFQS” value came to 0.0708, the “area with substrate ENLKFQS” value stood at 0.0712 and the “area with substrate ENLLFQS” value is 0.0469. Besides, the “area with substrate ENLMFQS” value was found to be 0.0647, the “area with substrate ENLNFQS” value was found to be 0.055, the “area with substrate ENLPFQS” value came to 0.0654 and the “area with substrate ENLRFQS” value is 0.0343. The “area with substrate ENLSFQS” value stood at 0.0496 and the “area with substrate ENLVFQS” value turned out to be 0.043.
In the case of MGESLFKGPRDYNPISSSICHLTNESDGHTTSLYGIGFGPFIITNKHLFRRNNGTLVVQSLHGVFKVKDTTTLQQHLVDGRDMIIIRMPKDFPPFPQKLKFREPQREERICLVTTNFQTKSMSSMVSDTSCTFPSGDGIFWKHWIQTKDGQCGSPLVSTRDGFIVIIHSASNFTNTNNYFTSVPKNFMELLTNQEAQQWVSGWRLNADSVLWGGHKVFMVKPEEPFQPVKEATQL [G166I], the “area with substrate ENLAFQS” value is 0.0692, the “area with substrate ENLDFQS” value worked out at 0.0566, the “area with substrate ENLFFQS” value stood at 0.0507 and the “area with substrate ENLHFQS” value came to 0.057. Moreover, the “area with substrate ENLIFQS” value was found to be 0.0498, the “area with substrate ENLLFQS” value was 0.0532, the “area with substrate ENLMFQS” value turned out to be 0.0485 and the “area with substrate ENLNFQS” value was 0.0666. Moreover, the “area with substrate ENLPFQS” value is 0.038, the “area with substrate ENLQFQS” value turned out to be 0.051, the “area with substrate ENLRFQS” value came to 0.0525 and the “area with substrate ENLSFQS” value was 0.0325. Also, the “area with substrate ENLVFQS” value is 0.0537 and the “area with substrate ENLWFQS” value amounted to 0.0468.
As for MGESLFKGPRDYNPISSSICHLTNESDGHTTSLYGIGFGPFIITNKHLFRRNNGTLVVQSLHGVFKVKDTTTLQQHLVDGRDMIIIRMPKDFPPFPQKLKFREPQREERICLVTTNFQTKSMSSMVSDTSCTFPSGDGIFWKHWIQTKDGQCGSPLVSTRDGFIVGIHSAVNFTNTNNYFTSVPKNFMELLTNQEAQQWVSGWRLNADSVLWGGHKVFMVKPEEPFQPVKEATQL [S171V], the “area with substrate ENLAFQS” value stood at 0.0486, the “area with substrate ENLCFQS” value was 0.0687, the “area with substrate ENLDFQS” value came to 0.0613 and the “area with substrate ENLEFQS” value was 0.05. For the same variant, the “area with substrate ENLFFQS” value came to 0.0847, the “area with substrate ENLHFQS” value was determined as 0.0695, the “area with substrate ENLIFQS” value turned out to be 0.0755 and the “area with substrate ENLKFQS” value is 0.0618. Further, the “area with substrate ENLMFQS” value came to 0.058, the “area with substrate ENLNFQS” value came to 0.0676, the “area with substrate ENLPFQS” value was 0.0549 and the “area with substrate ENLSFQS” value turned out to be 0.0686. Moreover, the “area with substrate ENLVFQS” value worked out at 0.0684 and the “area with substrate ENLWFQS” value was found to be 0.0591.
With MGESLFKGPRDYNPISSSICHLTNESDGHTTSLYGIGFGPFIITNKHLFRRNNGTLVVQSLHGVFKVKDTTTLQQHLVDGRDMIIIRMPKDFPPFPQKLKFREPQREERICLVTTNFQTKSMSSMVSDTSCTFPSGDGIFWKHWIQTKDGQCGSPLVSTSDGFIVGIHSASNFTNTNNYFTSVPKNFMELLTNQEAQQWVSGWRLNADSVLWGGHKVFMVKPEEPFQPVKEATQL [R160S], the “area with substrate ENLAFQS” value is 0.0641, the “area with substrate ENLDFQS” value is 0.0719 and the “area with substrate ENLNFQS” value worked out at 0.0562.
For the variant MGESLFKGPRDYNPISSSICHLTNESDGHTTSLYGIGFGPFIITNKHLFRRNNGTLVVQSLHGVFKVKDTTTLQQHLVDGRDMIIIRMPKDFPPFPQKLKFREPQREERICLVTTNFQTKSMSSMVSDTSCTFPSGDGIFWKHWIQTKDGQCGSPLVSTPDGFIVGIHSASNFTNTNNYFTSVPKNFMELLTNQEAQQWVSGWRLNADSVLWGGHKVFMVKPEEPFQPVKEATQL [R160P], the “area with substrate ENLAFQS” value amounted to 0.0666, the “area with substrate ENLCFQS” value worked out at 0.0544, the “area with substrate ENLDFQS” value is 0.0532 and the “area with substrate ENLEFQS” value worked out at 0.0467. The “area with substrate ENLFFQS” value came out at 0.061, the “area with substrate ENLHFQS” value was determined as 0.0583, the “area with substrate ENLIFQS” value is 0.0776 and the “area with substrate ENLKFQS” value came out at 0.0721. Further, the “area with substrate ENLLFQS” value turned out to be 0.0652, the “area with substrate ENLNFQS” value came to 0.0659, the “area with substrate ENLQFQS” value came to 0.0613 and the “area with substrate ENLRFQS” value is 0.0611.
In the case of MGESLFKGPRDYNPISSSICHLTNESDGHTTSLYGIGFGPFIITNKHLFRRNNGTLVVQSLHGVFKVKDTTTLQQHLVDGRDMIIIRMPKDFPPFPQKLKFREPQREERICLVTTNFQTKSMSSMVSDTSCTFPSGDGIFWKHWIQTKDGQCGSPLVSTRDGFIVGSHSASNFTNTNNYFTSVPKNFMELLTNQEAQQWVSGWRLNADSVLWGGHKVFMVKPEEPFQPVKEATQL [I167S], the “area with substrate ENLAFQS” value stood at 0.0743, the “area with substrate ENLCFQS” value was 0.0748, the “area with substrate ENLEFQS” value is 0.0554 and the “area with substrate ENLFFQS” value was found to be 0.0676. Also, the “area with substrate ENLGFQS” value amounted to 0.101, the “area with substrate ENLHFQS” value is 0.0625, the “area with substrate ENLIFQS” value was found to be 0.0542 and the “area with substrate ENLKFQS” value came to 0.0508. Besides, the “area with substrate ENLLFQS” value worked out at 0.046, the “area with substrate ENLNFQS” value was determined as 0.0446, the “area with substrate ENLPFQS” value stood at 0.0455 and the “area with substrate ENLQFQS” value is 0.0575. Moreover, the “area with substrate ENLSFQS” value was 0.0641, the “area with substrate ENLTFQS” value is 0.0598, the “area with substrate ENLVFQS” value came out at 0.0604 and the “area with substrate ENLWFQS” value turned out to be 0.0477.
For MGESLFKGPRDYNPISSSICHLTNESDGHTTSLYGIGFGPFIITNKHLFRRNNGTLVVQSLHGVFKVKDTTTLQQHLVDGRDMIIIRMPKDFPPFPQKLKFREPQREERICLVTTNFQTKSMSSMVSDTSCTFPSGDGIFWKHWIQTKDGQCGRPLVSTRDGFIVGIHSASNFTNTNNYFTSVPKNFMELLTNQEAQQWVSGWRLNADSVLWGGHKVFMVKPEEPFQPVKEATQL [S154R], the “area with substrate ENLAFQS” value was 0.0316, the “area with substrate ENLCFQS” value amounted to 0.074, the “area with substrate ENLDFQS” value was 0.0569 and the “area with substrate ENLEFQS” value came to 0.0542. In addition, the “area with substrate ENLFFQS” value was found to be 0.0928, the “area with substrate ENLHFQS” value stood at 0.0566, the “area with substrate ENLIFQS” value was determined as 0.0483 and the “area with substrate ENLKFQS” value came to 0.0676. Further, the “area with substrate ENLLFQS” value stood at 0.0751, the “area with substrate ENLNFQS” value was found to be 0.0643, the “area with substrate ENLPFQS” value was 0.0681 and the “area with substrate ENLQFQS” value turned out to be 0.0563. In addition, the “area with substrate ENLRFQS” value turned out to be 0.07, the “area with substrate ENLSFQS” value stood at 0.0648, the “area with substrate ENLVFQS” value is 0.0754 and the “area with substrate ENLWFQS” value was 0.0856.
Take MGESLFKGPRDYNPISSSICHLTNESDGHTTSLYGIGFGPFIITNKHLFRRNNGTLVVQSLHGVFKVKDTTTLQQHLVDGRDMIIIRMPKDFPPFPQKLKFREPQREERICLVTTNFQTKSMSSMVSDTSCTFPSGDGIFWKHWIQTKDGQCGLPLVSTRDGFIVGIHSASNFTNTNNYFTSVPKNFMELLTNQEAQQWVSGWRLNADSVLWGGHKVFMVKPEEPFQPVKEATQL [S154L]: the “area with substrate ENLAFQS” value is 0.0848, the “area with substrate ENLCFQS” value was found to be 0.134, the “area with substrate ENLDFQS” value stood at 0.0637 and the “area with substrate ENLEFQS” value amounted to 0.0636. The “area with substrate ENLHFQS” value worked out at 0.0775, the “area with substrate ENLIFQS” value is 0.0979, the “area with substrate ENLKFQS” value worked out at 0.108 and the “area with substrate ENLMFQS” value was 0.0882. Besides, the “area with substrate ENLNFQS” value amounted to 0.0632, the “area with substrate ENLPFQS” value is 0.0592 and the “area with substrate ENLSFQS” value amounted to 0.0663.
With MGESLFKGPRDYNPISSSICHLTNESDGHTTSLYGIGFGPFIITNKHLFRRNNGTLVVQSLHGVFKVKDTTTLQQHLVDGRDMIIIRMPKDFPPFPQKLKFREPQREERICLVTTNFQTKSMSSMVSDTSCTFPSGDGIFWKHWIQTKDGQCGFPLVSTRDGFIVGIHSASNFTNTNNYFTSVPKNFMELLTNQEAQQWVSGWRLNADSVLWGGHKVFMVKPEEPFQPVKEATQL [S154F], the “area with substrate ENLAFQS” value is 0.0668, the “area with substrate ENLEFQS” value is 0.0651, the “area with substrate ENLGFQS” value was determined as 0.0547 and the “area with substrate ENLHFQS” value worked out at 0.0691. For the same variant, the “area with substrate ENLKFQS” value worked out at 0.0601, the “area with substrate ENLPFQS” value was found to be 0.0391 and the “area with substrate ENLQFQS” value turned out to be 0.0663.
With MGESLFKGPRDYNPISSSICHLTNESDGHTTSLYGIGFGPFIITNKHLFRRNNGTLVVQSLHGVFKVKDTTTLQQHLVDGRDMIIIRMPKDFPPFPQKLKFREPQREERICLVTTNFQTKSMSSMVSDTSCTFPSGDGIFWKHWIQTKDGQCGSPLVSTRRGFIVGIHSASNFTNTNNYFTSVPKNFMELLTNQEAQQWVSGWRLNADSVLWGGHKVFMVKPEEPFQPVKEATQL [D161R], the “area with substrate ENLAFQS” value amounted to 0.0422, the “area with substrate ENLCFQS” value was 0.065, the “area with substrate ENLDFQS” value is 0.0647 and the “area with substrate ENLEFQS” value is 0.0396. Further, the “area with substrate ENLFFQS” value was found to be 0.0812, the “area with substrate ENLHFQS” value amounted to 0.0637, the “area with substrate ENLKFQS” value was 0.0693 and the “area with substrate ENLLFQS” value was 0.0361. The “area with substrate ENLNFQS” value is 0.0714, the “area with substrate ENLPFQS” value is 0.0587, the “area with substrate ENLQFQS” value was found to be 0.0483 and the “area with substrate ENLRFQS” value was determined as 0.0652. The “area with substrate ENLSFQS” value is 0.0502.
